Measurements taken from paper PMC4336329 (PLoS ONE, 2015).
Out of some 310,000 compounds screened, about 14,000 (4.5%) showed an effect of 50% or more. Effects have a minus sign here. This is one part of the list.

Biological target: human ether-à-go-go-related gene (hERG) potassium channel (human, UniProt Q12809)
Assay: primary screen, population patch clamp on CHO cells stably expressing hERG
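Further: peak tail current of the secondary pulse compared with the same well before compound.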

human ether-à-go-go-related gene (hERG) potassium channel, sequence (Q12809 whole entry, looked up): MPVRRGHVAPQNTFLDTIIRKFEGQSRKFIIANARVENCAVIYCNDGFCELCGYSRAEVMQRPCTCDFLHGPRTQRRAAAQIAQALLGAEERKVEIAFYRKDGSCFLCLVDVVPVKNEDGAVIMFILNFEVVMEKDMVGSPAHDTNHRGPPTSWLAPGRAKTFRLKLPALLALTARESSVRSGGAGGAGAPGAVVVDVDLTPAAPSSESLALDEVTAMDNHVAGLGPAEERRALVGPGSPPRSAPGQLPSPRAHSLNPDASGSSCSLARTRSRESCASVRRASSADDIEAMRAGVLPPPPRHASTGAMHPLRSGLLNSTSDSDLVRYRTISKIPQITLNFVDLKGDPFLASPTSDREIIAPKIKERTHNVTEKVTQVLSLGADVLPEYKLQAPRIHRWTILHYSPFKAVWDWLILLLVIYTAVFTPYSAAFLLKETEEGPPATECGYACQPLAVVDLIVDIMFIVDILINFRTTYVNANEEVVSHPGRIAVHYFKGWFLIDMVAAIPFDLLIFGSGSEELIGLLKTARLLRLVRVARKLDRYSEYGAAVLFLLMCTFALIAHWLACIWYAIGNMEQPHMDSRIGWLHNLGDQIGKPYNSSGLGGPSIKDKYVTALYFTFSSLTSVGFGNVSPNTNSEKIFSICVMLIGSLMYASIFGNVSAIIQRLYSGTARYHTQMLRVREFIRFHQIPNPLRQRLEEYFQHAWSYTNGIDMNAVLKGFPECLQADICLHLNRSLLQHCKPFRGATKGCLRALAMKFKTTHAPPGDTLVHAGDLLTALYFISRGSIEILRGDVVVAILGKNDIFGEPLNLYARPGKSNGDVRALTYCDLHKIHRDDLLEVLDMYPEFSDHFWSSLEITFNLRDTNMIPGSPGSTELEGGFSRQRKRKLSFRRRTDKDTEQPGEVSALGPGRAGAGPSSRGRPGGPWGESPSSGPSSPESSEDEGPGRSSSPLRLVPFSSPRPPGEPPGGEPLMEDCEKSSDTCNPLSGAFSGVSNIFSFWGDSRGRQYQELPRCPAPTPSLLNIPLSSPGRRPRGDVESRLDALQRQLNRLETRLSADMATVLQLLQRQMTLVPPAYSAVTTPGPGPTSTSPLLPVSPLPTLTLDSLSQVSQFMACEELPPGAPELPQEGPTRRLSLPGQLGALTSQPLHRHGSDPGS

SMILES	hERG current change (%, negative = inhibition) at 10uM
CCC/C(=N/NC(=O)c1ccccc1Cl)c1ccccc1	-13.1%
CC(=O)c1cccc(NC(=O)CN2C(=O)NC(C)(c3ccc4c(c3)OCCCO4)C2=O)c1 (stereo not drawn)	12.4%
Cc1ccc2nc(N3CCN(C(=O)CCC(=O)O)CC3)nc(-c3ccccc3)c2c1	6.74%
CCn1ncc(NC(=S)Nc2ccc(OC)c(OC)c2)c1C(N)=O	39.1%
CC(C)(C)NC(=O)COC(=O)c1ccc(Cl)cc1O	18.8%
O=C(N/N=C/c1cccs1)c1cccnc1	7.99%
Cc1ccc(NC(=O)c2c(C)noc2-c2snnc2C)cc1	-3.39%
CCOC(=O)CSC1=C(C#N)C(c2ccc(F)cc2)C(C(C)=O)=C(C)N1 (stereo not drawn)	-3.72%
CN(C)/C=C/C(=O)c1ccn(S(=O)(=O)c2ccccc2)c1	23.6%
Cc1ccccc1-n1c(C)nnc1SCc1nc2ccccc2s1	-8.28%
CC(=O)c1c[nH]c(C(=O)NCc2cccc(C(F)(F)F)c2)c1	13.3%
O=C(CN1CCN(c2ccccn2)CC1)Nc1ccc(F)cc1F	-5.02%
COc1cc(OC)cc(C(=O)Nc2ccccc2C(=O)N2CCCC2)c1	-5.26%
CCc1nc2ccc(C(=O)NCc3ccco3)cc2nc1CC	-17.8%
Cc1ccc(C23CC4CC(CC(C(=O)N5CCN(C)CC5)(C4)C2)C3)cc1	-28.7%
O=C(Cn1c(=O)sc2ccccc21)Nc1nc2c(s1)CCCC2	2.19%
O=C(N/N=C/c1ccco1)c1cc(=O)[nH]c2ccccc12	15.6%
Cc1ccc(-c2nn(-c3ccccc3)cc2/C=N/n2c(-c3ccncc3)n[nH]c2=S)cc1	-2.75%
NC(=O)C1(N2CCCCC2)CCN(c2nc(-c3ccccc3)cs2)CC1	-38.3%
CCCN(CCC)CCNC(=O)CN1C(=O)COc2ccc(S(=O)(=O)N3CCOCC3)cc21	8%
Cn1c(=O)c2c(nc(SCC(=O)NC3CCCC3)n2C)n(C)c1=O	9.53%
CCCN1C(=O)c2cc(C(=O)Nc3ccc(OC)cc3OC)ccc2C1Nc1ccc(OC)cc1OC (stereo not drawn)	-12.5%
COc1ccc(C(=O)N(C)Cc2ccccn2)cc1OC1CCN(C(C)C)CC1	9.45%

SMILES	hERG current change (%, negative = inhibition) at 10uM
O=C(O)CNC(=O)CCN1C(=O)c2ccccc2C1=O	-22.4%
O=C(Nc1ccc(Cl)cn1)c1ccccc1SCc1ccccc1	11%
O=C(O)c1ccc(COc2ccccc2Cl)cc1	17.9%
CCC(=O)Nc1ccc(C(=O)NNC(=O)c2ccc([N+](=O)[O-])cc2)cc1	13%
Cn1cnnc1SCCC(=O)Nc1ccccc1	5.07%
CC(C)N(Cc1ccccc1)C(=O)C1CCN(c2ncnc3c2nc2n3CCCCC2)CC1	-45.2%
COc1ccccc1C1CC(c2ccc(Br)cc2)=NN1C(=O)c1cccnc1 (stereo not drawn)	-32.9%
COC(=O)c1ccc(CNC(=O)C2CCC(=O)N(C3CCCCCC3)C2)cc1 (stereo not drawn)	4.17%
O=C1NC(c2ccccc2Cl)Nc2ccccc21 (stereo not drawn)	-1.87%
Cc1ccc2[nH]c(=O)c3cc(C(=O)NCCC(C)C)sc3c2c1	3.64%
Nc1nc(SCc2ccccc2Cl)nc2nc3c(cc12)CCCC3	-6.77%
CCOC(=O)c1cnc2c(C)c(Cl)ccc2c1NCCCN1CCOCC1	-49.2%
CC(C)(C)n1nnnc1C(c1ccccn1)N1CCN(C(c2ccccc2)c2ccccc2)CC1 (stereo not drawn)	1.69%
CCc1ccc(N(CC(=O)NCC2CCCO2)C(=O)CCC(=O)Nc2nccs2)cc1 (stereo not drawn)	-8.85%
COc1ccc2c(=O)cc(C(F)(F)C(F)(F)F)oc2c1	7.5%
Cc1cc(C)cc(NC(=O)c2ccc(NC(=O)c3ccco3)cc2)c1	17.5%
CCOc1ccc(NS(=O)(=O)c2ccc(C(=O)NCC(c3ccc(OC)cc3)N3CCCC3)cc2)cc1 (stereo not drawn)	-34%
Cn1cnnc1SCC(=O)Nc1ccc(OCc2ccccc2)cc1	13.2%
Cc1cc(C(=O)Nc2ncn[nH]2)ccc1[N+](=O)[O-]	26.3%
CCOC(=O)COc1ccc2c3c(c(=O)oc2c1)CCCC3	6.27%
Cc1ccccc1NC(=O)Cc1nc(COC(=O)COc2ccc(C(C)(C)C)cc2)cs1	-5.64%
CCC(=O)OCCNc1cc(Sc2nccn2C)c2nonc2c1[N+](=O)[O-]	-12.4%
